Experimental data taken from PubChem BioAssay AID493035 (The Scripps Research Institute Molecular Screening Center, 2011).
Out of some 2,000 compounds screened, about 45 (2%) were called active.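 How the source made its calls: active means inhibition above the mean of all tested compounds plus 3 SD (cut at about 49% in these data); inactive means the rest.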 The list shows a part of the results.

Molecular target: Perilipin-5 (Homo sapiens) + 1-acylglycerol-3-phosphate O-acyltransferase ABHD5 (Homo sapiens) (UniProt Q00G26+Q8WTS1)
Sequence of UniProt Q00G26 (Q00G26 whole entry, looked up): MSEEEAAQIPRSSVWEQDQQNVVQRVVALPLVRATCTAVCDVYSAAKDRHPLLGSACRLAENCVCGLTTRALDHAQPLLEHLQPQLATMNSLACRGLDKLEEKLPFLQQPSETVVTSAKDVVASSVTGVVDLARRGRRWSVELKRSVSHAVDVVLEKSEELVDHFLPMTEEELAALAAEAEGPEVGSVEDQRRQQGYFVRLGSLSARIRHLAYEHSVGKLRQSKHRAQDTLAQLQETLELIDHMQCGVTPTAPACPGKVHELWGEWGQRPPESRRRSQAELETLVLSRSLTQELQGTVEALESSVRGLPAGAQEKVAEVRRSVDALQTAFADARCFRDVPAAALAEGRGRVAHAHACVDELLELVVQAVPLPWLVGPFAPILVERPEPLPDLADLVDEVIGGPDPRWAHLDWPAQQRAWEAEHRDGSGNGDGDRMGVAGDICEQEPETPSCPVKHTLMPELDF
Sequence of UniProt Q00G26 (Q8WTS1 whole entry, looked up): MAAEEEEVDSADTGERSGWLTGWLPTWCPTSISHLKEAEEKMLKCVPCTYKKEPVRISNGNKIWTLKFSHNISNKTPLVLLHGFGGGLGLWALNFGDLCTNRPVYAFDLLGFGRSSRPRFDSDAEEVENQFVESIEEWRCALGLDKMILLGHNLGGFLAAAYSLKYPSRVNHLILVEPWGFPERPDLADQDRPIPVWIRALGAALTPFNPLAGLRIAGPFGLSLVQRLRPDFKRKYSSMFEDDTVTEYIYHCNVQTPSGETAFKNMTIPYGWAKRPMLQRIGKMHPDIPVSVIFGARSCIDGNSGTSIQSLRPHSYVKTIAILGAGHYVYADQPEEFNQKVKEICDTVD
Assay: ABHD5-PLIN5 interaction inhibitors, pilot screen, cell lysate, split luciferase complementation, luminescence, NIH validation set (AID 493035);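 further: 0% = DMSO only wells while the 100% control is not stated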
Conditions: split G. princeps luciferase complementation, lysates, 4 h; at 7.9 µM, hits give high values

inhibition, inactive:
COc1ccc(N2C(=O)[C@@H]3Cc4ccccc4CN3C2=O)cc1 -5.47%, CCC(C(=O)OCCN(CC)CC)c1ccccc1 (configuration not stated) 20.9%, CC(C)(C)n1c(=O)[nH]c2c(c1=O)CCC2 0.44%, O=C1CC2(CCCC2)CC(=O)N1CCCCN1CCN(c2ncccn2)CC1 -12.6%, COc1ccc2c(CC(=O)NCC3CCC(C(=O)O)CC3)cc(=O)oc2c1 (configuration not stated) 2.99%, CC[C@H]1OC(=O)[C@H](C)[C@@H](O[C@H]2C[C@@](C)(OC)[C@@H](O)[C@H](C)O2)[C@H](C)[C@@H](O[C@@H]2O[C@H](C)C[C@H](N(C)C)[C@H]2O)[C@](C)(O)C[C@@H](C)[C@@H]2N[C@@H](COCCOC)O[C@H]([C@H]2C)[C@]1(C)O -9.34%, CC(=O)O[C@H]1C(=O)[C@@]2(C)[C@H]([C@H](OC(=O)c3ccccc3)[C@]3(O)C[C@H](OC(=O)[C@H](O)C(NC(=O)c4ccccc4)c4ccccc4)C(C)=C1C3(C)C)[C@]1(OC(C)=O)CO[C@@H]1C[C@@H]2O (some centres not stated) -11.7%, CC(=O)Oc1cc2oc(=O)cc(C)c2cc1OC(C)=O -3.58%, O=C(NCCC(c1ccccc1)c1ccco1)c1cccs1 (configuration not stated) 8.42%, Cn1c2[n+](c3ccc(Cl)cc3c1=O)Cc1ccccc1-2 6.51%, O=C(CCCn1c(=O)oc2ccccc21)N1CCN(c2ccc(F)cc2)CC1 -0.97%, Cc1ccc(C(=O)Nc2ccccc2C(=O)NC(C(=O)O)C(C)C)cc1 (configuration not stated) 0.22%, CCn1c(SCC(=O)c2ccccc2)nc2ccccc2c1=O 7.6%, COc1ccc(C(=O)C2CCCCC2=O)cc1 (configuration not stated) -4.45%, Cc1ccc(-n2cc(CNCCN3CCOC3=O)c(-c3ccc(F)cc3)n2)cc1 -13.6%, O=C(COc1ccccc1)Nc1ccc2c(c1)C(=O)N(CC1CCCO1)C2=O (configuration not stated) -11.7%, COc1cc(Cl)cc2c1Sc1ccccc1/C2=C/CCN(C)C 6.56%, COc1ccc(C2CC(c3c(O)cc(C)oc3=O)=NCCS2)c(OC)c1 (configuration not stated) 22.5%, O=C(Cc1ccccc1[N+](=O)[O-])NCCCN1CCOCC1 -4.37%, CCOC(=O)c1cccc(C(=O)OCC)n1 -3.81%, CC(C)(C)[C@]1(O)CCN2C[C@H]3c4ccccc4CCc4cccc(c43)[C@@H]2C1 -1.68%, COc1ccc(C2=C(CN(C)C)C(c3ccccc3)c3ccccc3O2)cc1 (configuration not stated) 1.13%, CN1[C@@H]2CC[C@H]1CC(OC(=O)C(CO)c1ccccc1)C2 (some centres not stated) -13%, CC1Cc2ccccc2N1NC(=O)c1ccc(Cl)c(S(N)(=O)=O)c1 (configuration not stated) -5.24%, COc1ccc(CNCCC2(C(C)C)CCOC(C)(C)C2)cc1 (configuration not stated) -3.58%, CCN(CC)c1ccc([C@H]2[C@@H]3CCCC[C@]3(O)CCN2CC(=O)NCc2ccco2)cc1 2.08%, COC(=O)c1sccc1NC(=O)Nc1ccccc1F 0.62%, O=C(O)COc1ccc2occ(C(=O)c3ccccc3)c2c1 1.54%, CN(C)c1ccc(Nc2c3c4c(cccc4n(C)c2=O)C(=O)c2ccccc2-3)cc1 38.4%, COc1cc(-c2cccs2)cc(=O)c2c(C)oc(C)c12 47%, O=Cc1ccccc1Oc1ccccc1 -9.76%, O=C(/C=C/c1ccc(F)cc1)NC(=S)N1CCCCC1c1cccnc1 (configuration not stated) -5.93%, O=C(c1ccc(-c2ccccc2)c(F)c1)C1CCCN(C(=O)c2cncs2)C1 (configuration not stated) 9.09%, COc1ccc(C(=O)COc2ccc(F)cc2)c(O)c1 -6.5%, COc1ccc2c(c1OC)C(=O)N1C2SC[C@H]1C(=O)NC1CC(C)(C)NC(C)(C)C1 (some centres not stated) -1.21%, O=C(NC1CCCCC1)c1cc2nc(-c3ccco3)cc(C(F)(F)F)n2n1 -0.83%, Cc1c(OCC(F)(F)F)ccnc1CS(=O)c1nc2ccccc2[nH]1 (configuration not stated) 22.8%, CC(C)OC(=O)c1ccc(NC(=O)c2cncc(Br)c2)cc1 -4.98%, CN(C)CCN(Cc1cccs1)c1ccccn1 -12.6%, CCNC(=O)C12CCC(C)(C(=O)O1)C2(C)C (configuration not stated) -5.33%, COc1cc2c(cc1OC)C(c1cc3ccccc3oc1=O)=NC(C)(C)C2 10.2%, CCOc1cc2oc(=O)c3c(c2cc1Cl)CCC3 -4.77%, COc1ccc2oc(-c3ccco3)cc(=O)c2c1 0.3%, NC(=O)N1c2ccccc2C=Cc2ccccc21 -6.16%, COc1cc(C2NCCc3c2[nH]c2ccccc32)ccc1OC(C)C (configuration not stated) 0.82%, COc1ccc(N2C(=O)C3CCCN3C2=O)cc1 (configuration not stated) -3.88%, COc1cc(=O)n(C)c2ccccc12 -8.96%, Cc1cc(C(=O)Nc2ccccc2C(=O)N2CCCCC2)ccc1[N+](=O)[O-] 0.5%, CN(Cc1ccccc1)CC(O)COc1ccc(CNCc2cccnc2)cc1 (configuration not stated) -7.35%, COc1ccc2[nH]c3c(c2c1)CCNC3C1CC=C(C)CC1 (configuration not stated) -5.37%, CCOC(=O)C1(CCCc2ccccc2)CCN(C2CCN(C(C)=O)CC2)CC1 2.91%, NC(=O)[C@@H]1[C@@H]2C(=O)N(c3ccc(F)cc3)C(=O)[C@@H]2[C@H]2C=Cc3ccccc3N21 30.2%, COc1ccc(C(=O)/C=C/c2ccc(OC(=O)c3cc(OC)c(OC)c(OC)c3)cc2)cc1 40.8%, Cc1ccc2occ(C(=O)c3ccco3)c(=O)c2c1 -0.64%, O=C(NC(CO)Cc1ccc([N+](=O)[O-])cc1)C(Cl)Cl (configuration not stated) 4.04%, CC(=O)NC(Cc1ccccc1)C(=O)OCC(=O)c1ccccc1 (configuration not stated) -3.8%, COc1cccc(C2CC(=O)C3=C(C2)Nc2ccccc2N(C(=O)CCC(=O)O)C3c2ccc(F)cc2)c1 (configuration not stated) 0.5%
